# According to paper PMC4336329 (PLoS ONE, 2015):
# Screen size: about 310,000 compounds; about 14,000 (4.5%) showed an effect of 50% or more. The effect is printed as a negative number. Some of the results follow.
# Target: human ether-à-go-go-related gene (hERG) potassium channel (human, UniProt Q12809)
# Assay: primary screen, population patch clamp on CHO cells stably expressing hERG
# 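Note: peak tail current of the secondary pulse compared with the same well before compound.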
# Sequence of human ether-à-go-go-related gene (hERG) potassium channel (Q12809 whole entry, looked up): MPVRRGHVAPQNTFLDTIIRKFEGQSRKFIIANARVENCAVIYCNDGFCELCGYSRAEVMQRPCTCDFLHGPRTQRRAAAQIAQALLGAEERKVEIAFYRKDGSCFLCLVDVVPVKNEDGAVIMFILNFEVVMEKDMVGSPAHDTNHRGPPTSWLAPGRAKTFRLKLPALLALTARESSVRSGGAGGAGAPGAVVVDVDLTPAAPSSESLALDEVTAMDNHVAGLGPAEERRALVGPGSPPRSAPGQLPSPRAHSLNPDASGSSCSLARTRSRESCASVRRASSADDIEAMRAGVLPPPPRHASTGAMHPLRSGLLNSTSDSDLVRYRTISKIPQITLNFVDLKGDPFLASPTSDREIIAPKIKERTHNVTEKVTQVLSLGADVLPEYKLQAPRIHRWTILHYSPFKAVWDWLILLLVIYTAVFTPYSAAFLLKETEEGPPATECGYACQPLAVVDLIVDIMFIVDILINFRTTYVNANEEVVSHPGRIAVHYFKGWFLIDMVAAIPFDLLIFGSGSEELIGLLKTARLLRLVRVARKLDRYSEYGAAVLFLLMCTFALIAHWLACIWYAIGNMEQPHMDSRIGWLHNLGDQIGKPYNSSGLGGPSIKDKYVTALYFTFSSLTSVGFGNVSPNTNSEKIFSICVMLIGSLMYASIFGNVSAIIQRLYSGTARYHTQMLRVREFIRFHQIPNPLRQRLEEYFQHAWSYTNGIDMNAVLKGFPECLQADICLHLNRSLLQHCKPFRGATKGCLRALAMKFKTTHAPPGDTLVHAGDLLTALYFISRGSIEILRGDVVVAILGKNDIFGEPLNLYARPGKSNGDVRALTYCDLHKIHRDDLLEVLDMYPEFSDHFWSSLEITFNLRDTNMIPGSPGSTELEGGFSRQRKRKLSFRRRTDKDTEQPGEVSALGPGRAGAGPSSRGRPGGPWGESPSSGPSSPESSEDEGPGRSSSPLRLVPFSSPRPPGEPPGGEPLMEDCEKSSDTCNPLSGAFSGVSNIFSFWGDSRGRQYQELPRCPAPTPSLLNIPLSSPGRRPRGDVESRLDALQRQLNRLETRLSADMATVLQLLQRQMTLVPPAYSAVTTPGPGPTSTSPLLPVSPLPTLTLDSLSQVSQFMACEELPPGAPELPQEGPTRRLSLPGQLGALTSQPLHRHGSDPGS
row,SMILES,"hERG current change (%, negative = inhibition) at 10uM [%]"
1,O=C(O)C(=O)O.c1coc(CNCCc2c[nH]c3ccccc23)c1,1.35
2,C/C(=N\NC(=O)COc1ccc(C(C)(C)C)cc1)c1ccc(-n2ccnc2)cc1,-58.9
3,CC(NCc1ccc(S(N)(=O)=O)cc1)C(=O)Nc1cc([N+](=O)[O-])ccc1Cl (stereo not drawn),-45.8
4,CCOC(=O)/C=C1\CN(CCC(C)C)S(=O)(=O)c2ccccc21,-19
5,CCOC(=O)N1CCN(S(=O)(=O)c2ccc3c4c(cccc24)C(=O)N3)CC1,-14.5
6,[N-]=[N+]=CC(=O)CNC(=O)[C@@H](Cc1ccccc1)N1C(=O)c2ccccc2C1=O,6.66
7,Cc1ccc(-n2c(-c3ccc(Cl)cc3Cl)n[nH]c2=S)cc1,24.3
8,Cc1cc(C)cc(NC(=O)Nc2ccc3c(c2)N(C)C(=O)CS3)c1,8.27
9,CCC1CN(C(=O)N2CCC(C(=O)NCCc3ccc(OC)c(OC)c3)CC2)c2ccccc2O1 (stereo not drawn),0.164
10,COc1ccccc1N1CCN(C2CCCN(Cc3cccc(O)c3)C2)CC1 (stereo not drawn),-9.65
11,COc1ccccc1NCC(=O)c1ccc(Cl)cc1,4.01
12,CC(=O)N1CCc2ccc(S(=O)(=O)N3CCc4ccccc43)cc21,-39.3
13,COC(=O)c1ccc(C(=O)OC)c(NC(=S)N2CCN(c3ccccc3F)CC2)c1,-52.9
14,O=C(O)CC(CP(=O)(c1ccccc1)c1ccccc1)C(=O)O (stereo not drawn),2.83
15,COc1ccc(NS(=O)(=O)c2cc([N+](=O)[O-])ccc2N/N=C\c2c(C)[nH]c3ccccc23)cc1,22.8
16,CCCCc1ccc(NC(=S)NCC2CCCO2)cc1 (stereo not drawn),-16.2
17,CCOc1ccccc1NC(=S)Nc1ccc2cn[nH]c2c1,-14
18,COc1cc(/C=C2\C(=N)N3N=C(C)SC3=NC2=O)cc(OC)c1OCCOc1ccccc1C,30.7
19,CC1CCN(S(=O)(=O)c2cccc(-c3csc(-c4cccnc4)n3)c2)CC1,-0.0174
20,O=C(CSc1nnc(-c2ccccc2Cl)o1)Nc1ccccn1,14.9
21,COc1ccc(C)cc1NC(=O)Nc1ccccc1SC,11.6
22,Nc1cc(OC(=O)c2ccccc2Br)nn1S(=O)(=O)c1ccccc1,17.6

row,SMILES,"hERG current change (%, negative = inhibition) at 10uM [%]"
1,COc1ccc(OCC(=O)N2CCN(C(=O)c3ccc([N+](=O)[O-])cc3)CC2)cc1,-67.2
2,CC1CC(NC(=O)/C=C/C(=O)O)CC(C)(C)C1 (stereo not drawn),15.5
3,O=C(CSc1nnc(-c2ccccc2)o1)OCc1ccccc1,16.5
4,COc1ccc(CCNC(=O)CSc2c[nH]c3ccccc23)cc1OC,-4.32
5,N#C/C(=C\c1ccc(N2CCOCC2)o1)C(=O)NC1CCCCC1,-7.2
6,Cc1ccc(N2CC3=C(C2=O)C(c2ccccc2)NC(=O)N3C)cc1 (stereo not drawn),3.87
7,COc1ccc(-n2c(C)cc(C(=O)COC(=O)c3cc(NC(=O)c4cccs4)c(OC)c(OC)c3)c2C)cc1,6.03
8,Cc1ccc2c(=O)cc(C(=O)NCCc3ccc(S(N)(=O)=O)cc3)oc2c1,9.13
9,COc1ccc(S(=O)(=O)N(C)CC(=O)N2CCCCCC2)cc1,14.5
10,Cc1ccc(NC(=O)COC(=O)c2cccc3c(=O)c(C)c(-c4ccccc4)oc23)cc1,7.93
11,CN(C)C(=O)CN1CCN(c2nc3nonc3nc2N2CCCCC2)CC1,1.83
12,Cc1[nH]n(-c2ccc(F)cc2)c(=O)c1/C=N/c1sc2c(c1C#N)CCCC2,18.3
13,CCc1ccc(/C=C2\Oc3cc(OC(=O)N4CCOCC4)ccc3C2=O)cc1,18.2
14,COc1ccc(C(=O)N(C)CC(O)c2ccccc2)cc1OC1CCN(C(C)=O)CC1 (stereo not drawn),6.6
15,CCC(=O)N(Cc1ccco1)c1nc(-c2ccc(OC)cc2)cs1,0.363
16,Cc1c(Cc2ccccc2)sc(NC(=O)C(C)(C)C)c1C(N)=O,-20.8
17,O=S(=O)(NC(=NCc1ccccc1)c1ccc(F)cc1)c1ccc(Cl)cc1,24.9
18,O=C(Nc1ccncc1)Nc1ccc(F)cc1F,13.1
19,C[C@H](NC(=O)OCc1ccccc1)C(=O)NNC(=O)[C@H](C)NC(=O)OCc1ccccc1,17.3
20,COc1ccc(C(=O)Oc2cc(/C=N/NS(=O)(=O)c3ccccc3)ccc2OC)cc1,14.2
21,CCOc1ccc(C(=O)NC(=S)NCc2cccnc2)cc1,-16.7
22,COc1ccc(CN(C)C(=O)Cc2ccc(S(=O)(=O)N3CCOCC3)s2)cc1OC,7.58

row,SMILES,"hERG current change (%, negative = inhibition) at 10uM [%]"
1,CNc1nc(-c2c(C)[nH]c3ccc(OC)cc23)cs1,21.9
2,Brc1ccc(Nc2c3c(nc4ncnn24)CCC3)cc1,-21.4
3,COc1ccc2cc3cc(C(=O)NC(C)C)oc3nc2c1,10.3
4,O=C(/C(=C\c1ccccc1)c1nc2ccccc2[nH]1)c1ccc(Cl)cc1,-9.53
5,COc1ccc(C(=O)c2sc(Nc3ccccc3)c(C(=O)Nc3ccc(OC)c(OC)c3)c2N)cc1,7.79
6,O=C(NCc1ccc(Cl)s1)C1CCC(=O)N(CCc2ccccn2)C1 (stereo not drawn),-10.1
7,O=C(Nc1ccc(F)c(Cl)c1)c1ccc2c(=O)n3c(nc2c1)CCCCC3,-36.6
8,O=C(O)CSc1c2ccccc2cc2ccccc12,9.43
9,COc1cc(C(=O)N=c2sccn2C)c([N+](=O)[O-])cc1OC,16.3
10,CC(=O)O/N=C/c1c(N2CCOCC2)n(C)c2ccccc12,-14.4
11,O=C(CS(=O)CC(=O)Nc1ccccc1-c1ccccc1)Nc1ccc(F)cc1 (stereo not drawn),-2.16
12,Cc1ccc(NC2CCCN(C(=O)c3cccnc3)C2)cc1C (stereo not drawn),14.5
13,COC(=O)CC1COc2ccccc2N1C(=O)c1cccc(Cl)c1 (stereo not drawn),-21.8
14,CCN1C(=O)c2ccccc2S(=O)c2ccc(C(=O)N3CCCCCC3)cc21 (stereo not drawn),1.79
15,CCC(C)(C)NC(=O)c1cc(S(=O)(=O)N2CCc3ccccc32)cn1C,-2.52
16,CCOc1cc(/C=C2\COc3ccccc3C2=O)cc(Br)c1OCC(=O)N(C)C,-1.3
17,CCOc1ccc(NC(=O)CCN2CCCCC2)cc1,-10.3
18,CCCCn1c(=S)[nH]c2ccccc2c1=O,13.7
19,Cc1cccc(C)c1NC(=O)CCCSc1nc2ccccc2s1,4.51
20,CCOC(=O)c1cnn(-c2nc(-c3ccccc3)nc3c2COC(C)(C)C3)c1N,10.9
21,O=C(NNc1nc(-c2ccc(Br)cc2)cs1)c1ccco1,-3.22
22,CC(CCC(=O)O)(c1ccc(O)cc1)c1ccc(O)cc1,10.9

row,SMILES,"hERG current change (%, negative = inhibition) at 10uM [%]"
1,CCOC(=O)c1sc(NC(=O)/C=C/c2c(F)cccc2Cl)nc1C,23
2,CCOc1ccc(CCNC(=O)Nc2ccccc2)cc1OCC,17.5
3,CCC(C)NC(=S)N1CCN(C)CC1.O=C(O)C(=O)O (stereo not drawn),15.4
4,O=C(NC1CCCCC1)C1CCCN1S(=O)(=O)c1cccc2nsnc12 (stereo not drawn),-14
5,C=CCN1CCC2(C)c3cc(O)ccc3CC1C2C.Cl (stereo not drawn),-14.8
6,O=C(COc1cc2oc(=O)c3c(c2cc1Cl)CCC3)Nc1ccccn1,32.9
7,Cc1ccc(S(=O)(=O)NCC(=O)OCC(=O)N2CCc3ccccc32)cc1,3.63
8,Nc1ncnc2nc(SCCc3ccccc3)[nH]c12,7.66
9,Cc1cc(NC(=O)CSc2ncnc3c2cnn3-c2ccccc2)no1,-10.8
10,CCn1c(SCC(=O)n2c(C)c(C)c3ccccc32)nnc1-c1ccco1,7.75
11,COc1ccc(CCN2CC(C(=O)N(C)Cc3cccnc3)CC2=O)cc1OC (stereo not drawn),8.53
12,Fc1ccccc1OCCCCSc1ncccn1,-27.6
13,O=C(O)c1ccc(Oc2cc(Oc3ccc(C(=O)O)cc3)cc([N+](=O)[O-])c2)cc1,11.6
14,CCOC(=O)/C=c1\s/c(=C\c2c(OC)ccc3ccccc23)c(=O)n1CC(=O)NCC1CCCO1 (stereo not drawn),2.13
15,Cc1cc(C)c(S(=O)(=O)NCc2ccccn2)cc1C,12.8
16,CCOC(=O)C(NC(=O)c1ccccc1Cl)(Nc1ccc(C(F)(F)F)cc1)C(F)(F)F (stereo not drawn),-7.95
17,COc1ccc(C(=O)Nc2ccc(S(=O)(=O)N(C)c3ccccc3)cc2)cc1,3.6
18,NC(=O)N/N=C/c1cc(Br)ccc1OCC(=O)NCc1ccccc1,-6.43
19,Cc1cc(/C=N/n2cnnc2)c(C)n1-c1ccc(Cl)cc1Cl,-7.41
20,Cc1ccc2c(C)c(C(=O)NCCN3CCCC(O)C3)oc2c1C (stereo not drawn),-2.77
21,COc1cc(C(=O)NCCc2ccc(S(=O)(=O)N3CCCC3)cc2)cc(OC)c1OC,-29.5
